In PubChem BioAssay AID504332 (National Center for Advancing Translational Sciences (NCATS), 2011):
Out of some 350,000 compounds screened, about 31,000 (8.9%) were called active. Inconclusive results, whose numbers are uncertain, are shown with a selection of clear calls. The call rests on the fitted dose curve; in most records, active means well fitted inhibition curve with a large enough effect; inconclusive means small, poorly fitted or top-dose-only effect; inactive means no such curve, though single readings can be large or run the other way. A potency beside an inconclusive call is a rough fit, not a confirmed value.

Biological target: Histone-lysine N-methyltransferase EHMT2 (Homo sapiens) (UniProt Q96KQ7)
Sequence of UniProt Q96KQ7 (Q96KQ7 whole entry, looked up): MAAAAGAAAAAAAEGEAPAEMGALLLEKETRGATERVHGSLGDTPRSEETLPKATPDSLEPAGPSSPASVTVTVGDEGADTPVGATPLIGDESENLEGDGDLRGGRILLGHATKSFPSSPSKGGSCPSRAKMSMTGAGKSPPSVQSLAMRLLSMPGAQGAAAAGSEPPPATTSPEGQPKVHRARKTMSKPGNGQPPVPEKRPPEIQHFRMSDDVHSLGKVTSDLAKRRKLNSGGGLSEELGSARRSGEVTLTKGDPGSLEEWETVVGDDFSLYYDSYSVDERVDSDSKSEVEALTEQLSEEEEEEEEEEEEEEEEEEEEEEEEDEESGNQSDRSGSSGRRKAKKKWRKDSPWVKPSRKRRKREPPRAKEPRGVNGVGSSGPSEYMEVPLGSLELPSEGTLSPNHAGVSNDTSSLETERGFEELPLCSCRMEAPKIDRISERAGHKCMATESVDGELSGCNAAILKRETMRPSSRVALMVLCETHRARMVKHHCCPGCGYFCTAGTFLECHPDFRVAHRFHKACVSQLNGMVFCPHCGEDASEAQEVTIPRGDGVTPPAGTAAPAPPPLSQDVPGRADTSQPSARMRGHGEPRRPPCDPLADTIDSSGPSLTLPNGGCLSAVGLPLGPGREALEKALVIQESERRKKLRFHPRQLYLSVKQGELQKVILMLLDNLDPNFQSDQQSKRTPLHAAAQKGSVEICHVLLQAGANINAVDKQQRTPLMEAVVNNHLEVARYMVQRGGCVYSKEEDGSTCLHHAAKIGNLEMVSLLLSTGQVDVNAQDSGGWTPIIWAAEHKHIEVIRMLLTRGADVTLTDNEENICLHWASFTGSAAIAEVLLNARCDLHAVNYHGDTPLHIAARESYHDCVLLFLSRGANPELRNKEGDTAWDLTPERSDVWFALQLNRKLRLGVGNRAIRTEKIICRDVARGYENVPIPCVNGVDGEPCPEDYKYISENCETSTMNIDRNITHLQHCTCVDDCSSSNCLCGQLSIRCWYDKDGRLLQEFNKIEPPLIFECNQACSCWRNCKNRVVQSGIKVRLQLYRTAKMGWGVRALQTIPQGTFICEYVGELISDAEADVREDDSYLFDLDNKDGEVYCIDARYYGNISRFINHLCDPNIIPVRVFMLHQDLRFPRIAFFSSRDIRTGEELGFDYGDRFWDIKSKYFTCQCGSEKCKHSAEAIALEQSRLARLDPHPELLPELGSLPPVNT
Test: qHTS Assay for Inhibitors of Histone Lysine Methyltransferase G9a; further: nearly all actives have a fitted effect of over 75% in size
Conditions: G9a H3K9 monomethylation, AlphaScreen, 2 h; activity, negative = inhibition: at 59 µM (top of the series) unless noted
Method in brief: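 Compounds were preincubated with 20 nM G9a for 15 min, after which biotinylated H3K9 peptide (500 nM) and SAM (20 uM) started a 2 h room-temperature reaction. Monomethylated product was quantified by antibody-based AlphaScreen chemiluminescence.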
On the % scale 0 is the no-effect control and ±100 the full control effect; potency means the concentration at half of the fitted maximal effect; tags describe the fitted curve by direction and shape.

Compound	Potency	activity, negative = inhibition
O=[N+]([O-])c1ccc(N/N=C/c2c[nH]c3ccccc23)c(S(=O)(=O)Nc2ccc(Cl)cc2)c1	inconclusive: 3.98 µM [inhibitor, single point]	–
O=C(NCCCn1ccnc1)/C(=C/c1ccccc1)NC(=O)c1ccccc1	–	inactive: -14% [at 12.7 µM]
Cc1ccc(/C=C/c2nc3ccccc3[nH]2)cc1	–	inactive: 4.26%
COc1ccccc1NC(=O)CN1C(=O)COc2ccc(S(=O)(=O)N3CCC(C)CC3)cc21	–	inactive: 18.7%
Cc1ccccc1OCC(O)Cn1c(=N)n(CCN2CCCCC2)c2ccccc21 (configuration not stated)	inconclusive: 22.4 µM [inhibitor, partial curve, poor fit]	–
Cc1ccc(-c2nnc(Nc3cccc(O)c3)c3ccccc23)cc1S(=O)(=O)N1CCN(C)CC1	inconclusive: 20 µM [inhibitor, partial curve, poor fit]	–
Cc1ccc(-c2nc3ccccc3o2)cc1NC(=S)NC(=O)/C=C/c1ccco1	inconclusive: 79.4 µM [inhibitor, single point]	–
COc1ccc(N2CC(C(=O)N3CCC(c4nc5ccccc5[nH]4)CC3)CC2=O)cc1 (configuration not stated)	–	inactive: -18.1% [at 102 µM]
CSc1cccc(NC(=O)C2C3C=CC4(O3)C2C(=O)N(CCCN2CCOCC2)C4C(=O)NC2CCCCC2)c1 (configuration not stated)	active: 44.7 µM	–
OC1=C(O)c2nc3ccccc3nc21	inconclusive: 25.1 µM [inhibitor, partial curve, poor fit]	–
CC(C)[C@H](NC(=O)c1ccccc1)C(=O)OCC(=O)c1ccc(S(=O)(=O)N2CCCCC2)cc1	inconclusive: 89.1 µM [inhibitor, partial curve, poor fit]	–
O=C(CCS(=O)(=O)c1ccc(F)cc1)N1CCOCC1	inconclusive: 6.31 µM [inhibitor, full curve]	–
COc1ccccc1NS(=O)(=O)c1cccc(C(=O)N/N=C(\C)c2ccc3c(c2)OCCO3)c1	–	inactive: 6.43%
CC(C)(Oc1ccc(-c2ccco2)cc1)C(=O)O	–	inconclusive: -91.5% [inhibitor]
C=CCc1cccc2cc(C(=O)N3CCN(C(=O)c4ccco4)CC3)c(=O)oc12	active: 44.7 µM	–
CCOc1cccc(/C=C/c2cc(C(=O)O)c3ccccc3n2)c1OC	inconclusive: 89.1 µM [inhibitor, single point]	–
O=C(O)C1C2CCC(O2)C1C(=O)Nc1ccc(F)cc1 (configuration not stated)	inconclusive: 0.282 µM [inhibitor, full curve, poor fit]	–
O=C1CC(C(=O)N2CCOCC2)C2(CCCC2)O1 (configuration not stated)	inconclusive: 20 µM [inhibitor, single point]	–
CCOC(=O)/C(=N\Nc1ccccc1[N+](=O)[O-])c1csc(Nc2ccccc2)n1	inconclusive: 12.6 µM [inhibitor, full curve, poor fit]	–
CCc1nc(-c2cc(S(=O)(=O)N3CCN(c4ccccc4OC)CC3)ccc2OC)no1	–	inactive: -9.77%
CN1C2C=C3C(C#N)=C(N)C(C#N)(C#N)[C@@H](c4ccsc4)[C@@H]3C1CC2 (some centres not stated)	inconclusive: 31.6 µM [inhibitor, partial curve, poor fit]	–
CC(=O)C1=C(O)C(=O)N(c2ccccn2)C1c1ccc(C)cc1 (configuration not stated)	inconclusive: 31.6 µM [inhibitor, partial curve, poor fit]	–
CCCC(=O)NC(NC(=S)Nc1ccc(S(N)(=O)=O)cc1)C(Cl)(Cl)Cl (configuration not stated)	active: 44.7 µM	–

Compound	Potency	activity, negative = inhibition
CSCCC(NC(=O)c1ccc(Br)cc1)C(=O)O (configuration not stated)	inconclusive: 39.8 µM [inhibitor, full curve]	–
Nc1ccc(-n2nnnc2CN2CCOCC2)cc1	–	inactive: 26.2%
COc1ccc(CCC(C)Nc2cccc(F)c2)cc1 (configuration not stated)	inconclusive: 25.1 µM [inhibitor, partial curve, poor fit]	–
COc1cc2c(cc1OC)CN(C(=O)C(C)(C)C)CC2	inconclusive: 44.7 µM [inhibitor, partial curve, poor fit]	–
O=C(Nc1nn[nH]n1)C12CC3CC(CC(C3)C1)C2	inconclusive: 39.8 µM [inhibitor, single point]	–
CC1=C(C#N)C(c2cn(-c3ccccc3)nc2-c2cccs2)C(C#N)=C(C)N1	–	inactive: 1.72%
C#CCOCCOCCOCCNc1nc(N2CCN(C(=O)[C@H]([C@@H](C)CC)n3cc([C@@H](N)Cc4ccc(O)cc4)nn3)CC2)nc(N2CCN(C(=O)[C@H](CCCCN)n3cc([C@@H](N)CC(C)C)nn3)CC2)n1	–	inconclusive: -74.9% [inhibitor]
CCN(CC)P(=O)(Nc1cccc(C(F)(F)F)c1)c1ccc(N(C)C)cc1NC(=O)c1ccco1 (configuration not stated)	active: 31.6 µM	–
CC(C)CCn1c(CN2CCN(C(=O)c3ccco3)CC2)nc2c1c(=O)n(C)c(=O)n2C	inconclusive: 89.1 µM [inhibitor, single point]	–
Cc1oc2c(c(C)cc3oc(=O)c(CC(=O)N[C@@H](C)C(=O)O)c(C)c32)c1C	inconclusive: 89.1 µM [inhibitor, single point]	–
COc1ccc(NC(=O)CSc2ncccc2C(=O)OC(C)C)cc1OC	inconclusive: 79.4 µM [inhibitor, partial curve, poor fit]	–
Cc1cc(Cl)c(OCCOCCN2CCC(C)CC2)c(Br)c1	inconclusive: 28.2 µM [inhibitor, single point]	–
CCOC(=O)CNC(=O)CSc1ncnc2c1cnn2-c1ccc(Cl)cc1	–	inactive: 3.84%
Fc1ccc(CN2CCCN(Cc3nc(-c4ccc5c(c4)OCO5)no3)CC2)cc1	inconclusive: 39.8 µM [inhibitor, partial curve]	–
CN(C)CCNC(=S)Nc1ccc(F)c(F)c1F	inconclusive: 50.1 µM [inhibitor, partial curve, poor fit]	–
CCCCC/C=C\C[C@H](O)/C=C/C=C\C/C=C\CCCC(=O)O	inconclusive: 3.55 µM [inhibitor, full curve]	–
NNc1nc2sc3c(c2c(=O)n1Cc1ccccc1)CCC3	inconclusive: 44.7 µM [inhibitor, single point]	–
CC(=O)CCc1ccc(OCCCCN2CCC(Cc3ccccc3)CC2)cc1	active: 10 µM	–
CN(Cc1ccccc1)C(=O)c1[nH]cnc1C(=O)Nc1ccon1	–	inactive: 8.54% [at 0.501 µM]
O=C1C2C(C(=O)N1/N=C/c1cc([N+](=O)[O-])c(O)cc1O)C1C=CC2C12CC2 (configuration not stated)	active: 56.2 µM	–
COC(=O)C1=NN(C(=O)c2ccccc2)C(O)(c2ccc([N+](=O)[O-])cc2)C1 (configuration not stated)	–	inactive: -49.1% [at 102 µM]
CCOC(=O)[C@H]1[C@H]2COc3ccc(OC)cc3[C@@H]2N2C(=O)c3cc(OC)c(OC)cc3NC(=O)[C@@]12C	–	inactive: -4.71% [at 2.33 µM]
Cn1c(C(=O)Nc2ccc3c(c2)OCCO3)cc2sccc21	active: 50.1 µM	–

Compound	Potency	activity, negative = inhibition
COc1ccc2[nH]c3c(=O)n4c(nc3c2c1)SCC4	–	inactive: -24.1% [at 102 µM]
COc1ccc(/C=N/NC(=O)C(Cc2c[nH]c3ccccc23)NC(=O)OCC(C)C)cc1[N+](=O)[O-] (configuration not stated)	inconclusive: 56.2 µM [inhibitor, partial curve, poor fit]	–
CC(=O)Oc1ccc(C(=O)[C@H]2[C@H]3C(=O)N(c4ccccc4)C(=O)[C@H]3[C@@H]3C=CC=NN32)cc1	active: 4.47 µM	–
Cc1ccc(C)c(CN2C(=O)C3CCCN3c3ccc(S(=O)(=O)N4CCOCC4)cc32)c1 (configuration not stated)	inconclusive: 35.5 µM [inhibitor, single point]	–
O=c1[nH]nc(N/N=C/c2ccccc2OC(F)F)c(=O)[nH]1	inconclusive: 70.8 µM [inhibitor, partial curve, poor fit]	–
O=c1[nH]c2cc3c(cc2cc1CN(Cc1cccs1)Cc1nnnn1Cc1ccco1)OCCO3	inconclusive: 28.2 µM [inhibitor, single point]	–
CN(C(=O)CSc1cn(CC(=O)N2CCOCC2)c2ccccc12)c1ccccc1	inactive	–
Cn1c(C(=O)N2CCCC2)cc2c(=O)n(C)c3ccccc3c21	–	inactive: 12.3% [at 102 µM]
O=C1C(O)CC2c3ccccc3CC3(CCCC3)N12 (configuration not stated)	inconclusive: 89.1 µM [inhibitor, single point]	–
CCOc1cc(/C=C(\C#N)C(=O)Nc2cccc(C(=O)O)c2)ccc1OCc1ccccc1Cl	active: 50.1 µM	–
Cc1cc(NC(=O)c2coc(=O)c(Br)c2)ccc1C(C)C	active: 50.1 µM	–
CCOC(=O)c1ccccc1OCc1cc(/C=N/n2cnnc2)ccc1OC	inconclusive: 79.4 µM [inhibitor, single point]	–
COc1ccc(-c2[nH]ncc2CN2CCN(C(=O)c3ccco3)CC2)cc1F	inconclusive: 79.4 µM [inhibitor, single point]	–
Clc1ccc(C2=Nn3c(nnc3-c3cccnc3)SC2)s1	inconclusive: 56.2 µM [inhibitor, single point]	–
Cc1cccc(C)c1OCCCN1CCOCC1	active: 35.5 µM	–
Nn1c(SCC(=O)NCCCc2ccccc2)nnc1-c1cccnc1	active: 50.1 µM	–
O=C1NC(c2cccc(Br)c2)=N/C1=C\c1ccco1	inconclusive: 10 µM [inhibitor, partial curve, poor fit]	–
CCCC1CC(C(=O)NC(C(C)Cl)C2OC(SC)C(O)C(O)C2O)N(C)C1 (configuration not stated)	–	inactive: -6.4% [at 12.7 µM]
Cc1ccc2c(CC(=O)Nc3ccc(N4CCN(C)CC4)cc3C)coc2c1	inconclusive: 39.8 µM [inhibitor, single point]	–
O=c1c(-c2cc(F)cc(F)c2)nc2cncnc2n1Cc1ccccc1Cl	–	inactive: -0.511% [at 0.501 µM]
NC(=O)c1ccc2c(c1)S(=O)(=O)c1ccccc1C2=O	–	inactive: -0.647% [at 2.33 µM]
